{"source": "the supplement of paper PMC11417369", "note": "± gives the standard deviation of the averaged measurements. The list shows a part of the results.", "data": [{"system": "PfAP2-LT AP2 domain (GST-tagged)", "assay": "gcPBM binding intensity (ln(normalized median fluorescence intensity)); higher = stronger DNA binding", "procedure,_shortened": "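Binding intensity is the highest Masliner-normalised natural-log median intensity over replicate spots in either probe orientation. To obtain it, GST-tagged P. falciparum DNA-binding domains made in E. coli were incubated for 1 h on an Agilent 4 × 180k array of primer-extended double-stranded 36-bp intergenic genomic probes plus negative controls. Detection used Alexa488 anti-GST antibody with scanning at 488 nm.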", "values": [{"sequence": "ATATAATTATATTCCATACACACATATATTTAAAGG [CACACA_site2958]", "gcPBM binding intensity (ln)": "8.86 ± 0.33"}, {"sequence": "AAAAAAATAAATAAATGTACATATATAAAACATTGT [XGTACX_site2136]", "gcPBM binding intensity (ln)": "8.93 ± 0.46"}, {"sequence": "AAACGAGAACATAATAAATACATAAATAAATAAATA [GTGCAC_negctrl_site433]", "gcPBM binding intensity (ln)": "9.03 ± 0.51"}, {"sequence": "TTTTTTATTCCATAATATAATATGTTTTGAAATTTG [GTGCAC_negctrl_site440]", "gcPBM binding intensity (ln)": "8.36 ± 0.52"}, {"sequence": "ATATACATATCAATGTAATATTATATACTTTTTTAG [CACACA_negctrl_site816]", "gcPBM binding intensity (ln)": "8.55 ± 0.41"}, {"sequence": "AATATATTAAATATTACACACATACATTTAGTGTAA [CACACA_site5145]", "gcPBM binding intensity (ln)": "8.86 ± 0.34"}, {"sequence": "TAGTTCTTTTAATTTAGTATTATACAATATTGGAAA [CACACA_negctrl_site521]", "gcPBM binding intensity (ln)": "8.29 ± 0.33"}, {"sequence": "TATATATTAAACTTTGCACACATAATTTAACTACAA [CACACA_site3440]", "gcPBM binding intensity (ln)": "9.09 ± 0.34"}, {"sequence": "TTATTTATGAAGTATACACACAATATATATATATAT [CACACA_site1248]", "gcPBM binding intensity (ln)": "9.14 ± 0.12"}, {"sequence": "TTAATCCACAGACACACACACACAAAATAAAATACA [CACACA_site244]", "gcPBM binding intensity (ln)": "9.98 ± 0.36"}, {"sequence": "TAGTTAATATGATTATGTACATATATATATTAATTT [XGTACX_site1750]", "gcPBM binding intensity (ln)": "8.59 ± 0.35"}, {"sequence": "TTAGATATTATTATATGTACATATTATATGTATTAT [XGTACX_site3836]", "gcPBM binding intensity (ln)": "8.93 ± 0.43"}, {"sequence": "ATTTTTTTTTTTTTTTTTTTTTTTTTTTTTGTTGTT [CACACA_negctrl_site1313]", "gcPBM binding intensity (ln)": "8.65 ± 0.49"}, {"sequence": "TGTATATGAAAAAATAGTACTCATATAAATATCTTT [XGTACX_site6542]", "gcPBM binding intensity (ln)": "8.56 ± 0.4"}, {"sequence": "ATAATATATTTATAAACACACAAAAAAAGTTATATA [CACACA_site6831]", "gcPBM binding intensity (ln)": "8.77 ± 0.43"}, {"sequence": "TTTATTTTATTCACTATCATAAGCAAAACTTAAACA [GTGCAC_negctrl_site287]", "gcPBM binding intensity (ln)": "8.16 ± 0.4"}, {"sequence": "ATTAATAATATTACATGTACATAATATAATTGAAAA [XGTACX_site5084]", "gcPBM binding intensity (ln)": "8.62 ± 0.4"}, {"sequence": "ATGTCCTATATTAGTACACACATGAAAATATAAATA [CACACA_site7497]", "gcPBM binding intensity (ln)": "8.88 ± 0.4"}, {"sequence": "TTATTGTTATTTGTTTGTACATAATATAATATATTA [XGTACX_site6477]", "gcPBM binding intensity (ln)": "8.68 ± 0.42"}, {"sequence": "TCCTATGATGATGATAGTACATATGAGTTCAAAAAA [XGTACX_site273]", "gcPBM binding intensity (ln)": "8.54 ± 0.37"}, {"sequence": "ACAATTAATCAAACAAGTACAAAATATATCCCTATT [XGTACX_site6223]", "gcPBM binding intensity (ln)": "8.91 ± 0.37"}, {"sequence": "AATATAAAAAAAAACAAAAAAAAAATTTTGGTTCAC [CACACA_negctrl_site1290]", "gcPBM binding intensity (ln)": "8.39 ± 0.54"}, {"sequence": "AACCATACACAAATAAACATAGACACAGATACCTCC [CACACA_negctrl_site598]", "gcPBM binding intensity (ln)": "9.2 ± 0.52"}, {"sequence": "AATAATAAATAAATGTGTACTTAAAAATATTATATT [XGTACX_site3005]", "gcPBM binding intensity (ln)": "8.78 ± 0.47"}, {"sequence": "TTGTATCATATATTATGTACATATTGATTTATTACC [XGTACX_site12]", "gcPBM binding intensity (ln)": "8.84 ± 0.53"}, {"sequence": "CAAAGTATTATGATTACACACATGTGCTTTTTTCTT [CACACA_site163]", "gcPBM binding intensity (ln)": "9.22 ± 0.4"}, {"sequence": "TTTTTAAAATATTTAACACACAATTATAATGCATAA [CACACA_site3932]", "gcPBM binding intensity (ln)": "8.52 ± 0.32"}, {"sequence": "AGTAGTCTGGAGAAATGTACACAGTATCTGGTAGCT [XGTACX_site4871]", "gcPBM binding intensity (ln)": "8.86 ± 0.44"}, {"sequence": "AATATGTGTATAGATAGTACACATGCTGATAATATA [XGTACX_site5941]", "gcPBM binding intensity (ln)": "9.01 ± 0.38"}, {"sequence": "AAAATTTTGGAACGTGCACACATATGTAATATATAT [CACACA_site9004]", "gcPBM binding intensity (ln)": "9.32 ± 0.37"}, {"sequence": "CTTATAAGAATACTAGTGCACATAATTTAACGAAAA", "gcPBM binding intensity (ln)": "8.74 ± 0.48"}, {"sequence": "AGCTTGTAACAGTTTACACACTAATATTTATAAATT [CACACA_site6024]", "gcPBM binding intensity (ln)": "8.82 ± 0.38"}, {"sequence": "ATATTTTTTTTTTTATGTACTTATTTATAATTATTT [XGTACX_site5279]", "gcPBM binding intensity (ln)": "8.84 ± 0.58"}, {"sequence": "ATTATACAAATTGAGGTGCATGAAACAAAATATGAA", "gcPBM binding intensity (ln)": "8.95 ± 0.52"}, {"sequence": "TTTTTTTTTTTTTTTTCACACATTGTACTTTTTTAT [CACACA_site5193]", "gcPBM binding intensity (ln)": "8.84 ± 0.48"}, {"sequence": "TAAGTCATATAAATGTGTACATAAAAAAAAAAAATG [XGTACX_site1645]", "gcPBM binding intensity (ln)": "8.74 ± 0.5"}, {"sequence": "TCTATCAAATTTGAAGGTACACATTTGAGATAATTA [XGTACX_site3797]", "gcPBM binding intensity (ln)": "8.56 ± 0.45"}, {"sequence": "ATCATTTGCATACGCACACACACATAAAAAGAAAAA [CACACA_site355]", "gcPBM binding intensity (ln)": "9.57 ± 0.45"}, {"sequence": "TACTTATTGTGATACTTATATTATTTTATGATTAAA [XGTACX_negctrl_site353]", "gcPBM binding intensity (ln)": "8.5 ± 0.42"}, {"sequence": "TATATTTATTTATATACACACATAATAAAAAATATA [CACACA_site6527]", "gcPBM binding intensity (ln)": "8.6 ± 0.42"}, {"sequence": "TATTAATGATAAAAAAGTACATTATTATATGATATT [XGTACX_site4235]", "gcPBM binding intensity (ln)": "8.42 ± 0.48"}, {"sequence": "TATATATATATATATATATATATATATGTATATATG [XGTACX_negctrl_site242]", "gcPBM binding intensity (ln)": "9.62 ± 0.28"}, {"sequence": "ATAATCCACAAGCACACACACACACCCATATATATA [CACACA_site1268]", "gcPBM binding intensity (ln)": "10.1 ± 0.35"}, {"sequence": "AACTTTAAACCCTGAACACACACAAATACACCCAAA [CACACA_site7971]", "gcPBM binding intensity (ln)": "9.57 ± 0.23"}, {"sequence": "CTTTTCTATTTTTTCGTGCACTATAAATATTTTAAT", "gcPBM binding intensity (ln)": "8.89 ± 0.43"}, {"sequence": "CACCAAAATATATGTACATATGATAAATGTGAATAT [GTGCAC_negctrl_site83]", "gcPBM binding intensity (ln)": "9.17 ± 0.41"}, {"sequence": "GTCTATATATTTTAGGTGCAACGTAAATGTAAAAAT", "gcPBM binding intensity (ln)": "8.86 ± 0.42"}, {"sequence": "AAAATTATCGTTATATGTACGCATCTTAATACGTAT [XGTACX_site4063]", "gcPBM binding intensity (ln)": "8.86 ± 0.3"}, {"sequence": "TAACTTTTTTTTTTTTTTTTTTAACTTTTATGTAAT [GTGCAC_negctrl_site156]", "gcPBM binding intensity (ln)": "8.32 ± 0.56"}, {"sequence": "TTTTACAATATTTTGTGTACTTATATTATGAGCTTA [XGTACX_site3287]", "gcPBM binding intensity (ln)": "8.58 ± 0.45"}, {"sequence": "TTTGTCAACCAAAATTGTACAAATGTATTCCCAATA [XGTACX_site1350]", "gcPBM binding intensity (ln)": "8.57 ± 0.36"}, {"sequence": "TTATTTATCAAAAAATGTACAAAAATATATAAACAA [XGTACX_site940]", "gcPBM binding intensity (ln)": "8.64 ± 0.45"}, {"sequence": "TTTTAAAAAAGAAAAAAAAAGGATCAGAGAAATATT [GTGCAC_negctrl_site79]", "gcPBM binding intensity (ln)": "8.35 ± 0.59"}, {"sequence": "TTATATTTATTTAATGAACACACGATATATTATTTT [CACACA_site1601]", "gcPBM binding intensity (ln)": "8.66 ± 0.41"}, {"sequence": "AAATGTTAATTAAATGCATGTACAAAAGGAGCGAAT [TGCATGCA_site942]", "gcPBM binding intensity (ln)": "9.25 ± 0.42"}, {"sequence": "AAAAAAATTAATAATGTGCACTTTTTAGTATTTTTA [GTGCAC_site9744]", "gcPBM binding intensity (ln)": "8.53 ± 0.49"}, {"sequence": "TTGTAGATATTTATATGTACGAATTTATAAATATAG [XGTACX_site3611]", "gcPBM binding intensity (ln)": "8.4 ± 0.4"}]}]}
